Experimental findings from PubChem BioAssay AID1159614 (National Center for Advancing Translational Sciences (NCATS), 2016) are described below.

Molecules are shown by their SMILES. In all, about 45,000 compounds went through this assay and about 65 (0.1%) were called active. The call rests on the fitted dose curve; in most records, active means well fitted activation curve with a large enough effect; inconclusive means small, poorly fitted or top-dose-only effect; inactive means no such curve, though single readings can be large or run the other way. The list shows a part of the results.

The test addresses Galactocerebrosidase (Homo sapiens) (UniProt P54803). Briefly: A Novel Cell-Based Assay to Identify Small Molecules for B -Galactocerebrosidase. Further: 0% is about no effect; nearly all actives have a fitted effect of over 65% in size. As to conditions: 145M-Twi-hGALC-G270D cells (Twitcher mouse brain line with human GALC G270D), HMU-beta-Gal fluorescence, 48 h; series mostly up to 57.5 µM; activation: at the top concentration. The method in brief: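 Fluorescence readout: HMU-β-gal cleavage by mutant GALC (0.1 mM final, citrate/phosphate pH 5.2 with 1 mg/mL taurocholate), stopped with carbonate/bicarbonate plus Triton X-100. Cells: murine Twitcher 145M-Twi expressing human G270D GALC; qHTS for activators.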
Chain of UniProt P54803 (P54803 whole entry, looked up): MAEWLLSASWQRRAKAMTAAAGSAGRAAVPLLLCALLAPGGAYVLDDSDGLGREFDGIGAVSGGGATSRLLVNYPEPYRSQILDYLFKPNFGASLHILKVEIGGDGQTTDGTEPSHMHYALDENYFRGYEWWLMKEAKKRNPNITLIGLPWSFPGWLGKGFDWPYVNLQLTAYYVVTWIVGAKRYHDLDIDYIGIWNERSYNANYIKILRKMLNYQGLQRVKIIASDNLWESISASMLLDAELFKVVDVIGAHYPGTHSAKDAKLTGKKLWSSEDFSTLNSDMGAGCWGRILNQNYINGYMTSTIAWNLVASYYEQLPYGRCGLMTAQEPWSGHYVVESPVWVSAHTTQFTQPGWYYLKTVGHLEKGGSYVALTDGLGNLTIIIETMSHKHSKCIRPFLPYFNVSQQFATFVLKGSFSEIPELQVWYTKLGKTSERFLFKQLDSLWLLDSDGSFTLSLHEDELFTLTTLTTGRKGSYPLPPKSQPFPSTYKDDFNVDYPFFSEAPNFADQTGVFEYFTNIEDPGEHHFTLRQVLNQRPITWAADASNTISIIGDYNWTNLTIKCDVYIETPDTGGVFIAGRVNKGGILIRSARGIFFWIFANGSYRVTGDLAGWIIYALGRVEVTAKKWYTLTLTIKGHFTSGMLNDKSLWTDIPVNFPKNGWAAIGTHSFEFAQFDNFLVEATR
Regarding `COc1ccc(NC(=O)CSC2=Nc3ccccc3C3=NC(CC(=O)NCc4ccco4)C(=O)N23)cc1` (stereo unspecified), the “activation” value is inactive: -19.5%.
On to `O=C(Cn1c(-c2cccs2)cc2ccccc21)N1CCN(c2ccccc2F)CC1`, for which the “activation” value is inactive: -3.96%.
Regarding `O=C(CSc1nnc(-c2ccncc2)n1-c1ccccc1)Nc1ccc(Cl)c(Cl)c1`, the “activation” value was inactive: -13.5%.
The figure for `CC1(C)S[C@@H]2[C@H](NC(=O)C(C(=O)O)c3ccccc3)C(=O)N2[C@H]1C(=O)O` (stereo partly specified) is inactive: -16.6%; for `CCOc1cc(CNC(=O)c2ccccc2NC(=O)c2nsc3ccccc23)ccc1OC` it is inactive: -10%.
The figure for `Cc1ccc(C(=O)N(Cc2ccco2)Cc2ccco2)cc1` is inactive: -5.17%.
As for `CCOc1cccc(CC(=O)NCc2ccc3c(c2)CCN3C(=O)c2ccc(F)cc2)c1OCC`, the “activation” value was inactive: -16.6%.
With `CCOc1ccc(NC(=O)Cn2cc(C(=O)c3cccs3)c3ccccc32)cc1` the figure was inactive: -1.77%; with `CC(CNC(=O)CN1C(=O)COc2ccc(S(=O)(=O)N3CCCCCC3)cc21)c1ccccc1` (stereo unspecified), inactive: -1.46%; with `COc1ccc(CCNC(=O)c2cccc(-n3cnc4cccnc43)c2C)cc1OC`, inactive: -23.1%.
With `CCCCNC(=O)c1nn(-c2ccc(C)cc2)c(=O)n(C)c1=O` the figure was inactive: -9.67%; with `Cc1ccc(Cl)cc1NC(=O)C1CCCN(S(=O)(=O)c2cccc3cccnc23)C1` (stereo unspecified), inactive: -13.8%; with `COc1ccc(N2C(=O)CS(=O)(=O)C23C(=O)N(Cc2ccc(F)cc2)c2ccc(C)cc23)cc1` (stereo unspecified), inactive: -28.5%.
Take `COc1ccccc1CNC(=O)CSc1nc2nc(C)c(Cc3ccccc3Cl)c(C)n2n1`: the “activation” value was inactive: -0.66%.
The figure for `Cc1ccccc1NC(=O)c1c(NC(=O)c2ccco2)sc2c1CCC(C(C)(C)C)C2` (stereo unspecified) is inactive: -10.9%; for `CCC(=O)N1CCc2cc(Br)cc(S(=O)(=O)N3CCCC(C(=O)Nc4cccc(C)c4C)C3)c21` (stereo unspecified) it is inactive: -4.16%.
With `Cc1ccccc1CNC(=O)c1cccc(NC(=O)N2CCSc3ncccc32)c1` the figure was inactive: -2.95%; with `CCOC(=O)c1c(S(=O)(=O)N2CCCC(C(=O)Nc3cccc(C#N)c3)C2)c(C)n(C)c1C` (stereo unspecified), inactive: -19.6%.
The figure for `CC(Oc1ccccc1)C(=O)Nc1ccc(OCc2cc(=O)n3ccsc3n2)cc1` (stereo unspecified) is inactive: -15.8%.
In the case of `Cn1c(=O)c2c(SCC(=O)NCc3ccco3)nc(-c3cccc(F)c3)nc2n(C)c1=O`, the “activation” value was inactive: -12.3%.
Take `CCOc1ccc(CC(=O)Nc2c(C(=O)Nc3ccc(OC)cc3OC)oc3ccccc23)cc1`: the “activation” value is inactive: -9.35%.
The figure for `Cc1ccc(S(=O)(=O)c2cn(CC(=O)Nc3ccccc3C)c3cc4c(cc3c2=O)OCO4)cc1` is inactive: -10.8%.
Regarding `Cc1cc2c(cc1S(=O)(=O)N(C)CC(=O)Nc1ccc(C#N)cc1)OCC(=O)N2`, the “activation” value is inactive: -9.37%.
The figure for `NS(=O)(=O)c1ccc(CCNC(=O)c2ccc3nc(CCc4ccccc4)oc3c2)cc1` is inactive: -18.6%; for `CCOC(=O)c1c(S(=O)(=O)NCC(=O)Nc2ccc(C)c(N(C)C)c2)c(C)n(C)c1C` it is inactive: -9.31%; for `C[C@H](N)[C@H](O)c1cccc(O)c1` it is inactive: -14.5%.
With `COc1ccc(-c2nc3cc(C)ccn3c2NC(=O)c2ccc(F)cc2)cc1` the figure was inactive: -11.2%.
As to `CCOc1ccc(CCNC(=O)c2nc(-c3cccc(F)c3)n3c2CCCCC3)cc1OCC`, the “activation” value is inactive: -21.3%.
With `CCOc1ccc(CNC(=O)c2cnc3sc(N4CCOCC4)nn3c2=O)cc1OC` the figure was inactive: 0.683%; with `CC(C)c1nc2ccc(C(=O)NCCCN3CCN(c4cccc(Cl)c4)CC3)cc2o1`, inactive: -8.72%.
With `Cc1cccc(N2CCN(C(=O)CN3C(=O)COc4ccc(S(=O)(=O)N5CCC(C)CC5)cc43)CC2C)c1` (stereo unspecified) the figure was inactive: -7.66%; with `CCOC(=O)N1CCN(Cc2nc3cc([N+](=O)[O-])ccc3n2C(C)C)CC1`, inactive: -16.6%; with `Cc1ccc2scc(N3CCC(C)CC3)c(=O)c2c1`, inactive: -8.38%.
With `CCOC(=O)C1CCC(CN(Cc2ccc(Cl)cc2)S(=O)(=O)c2cc(Cl)cc(Cl)c2)CC1` (stereo unspecified) the figure was inactive: -8.66%.
Take `Cc1cccc(N2CCN(C(=O)C3CCCN(S(=O)(=O)c4ccc(Br)s4)C3)CC2)c1C` (stereo unspecified): the “activation” value was inactive: -22.8%.
Consider `COc1cccc(NS(=O)(=O)c2ccc3c(c2)[C@H]2C=CC[C@H]2[C@@H](c2ccccc2Cl)N3)c1`, for which the “activation” value is inactive: -9.72%.
With `CCOc1ccccc1NC(=O)CCn1cnnn1` the figure was inactive: -13.9%; with `Cc1[nH]c2ccccc2c1C(c1ccccc1)c1ccc(Cl)s1` (stereo unspecified), inactive: -16.7%.
With `CN=C(NC#N)Nc1ccc(C2=NNC(=O)CC2C)cc1` (stereo unspecified) the figure was inactive: -6.04%; with `COc1cccc(CNC(=O)Cc2ccc(NC(=O)N3CCSc4ncccc43)cc2)c1OC`, inactive: -9.02%; with `Cc1cccn2c(Nc3ccccc3)c(-c3cccs3)nc12`, inactive: -25.8%.
With `COc1ccccc1NC(=O)CSc1nc2nccnc2c(=O)n1CCc1c[nH]c2ccccc12` the figure was inactive: 2.2%; with `CCN(CC)CCNC(=O)CSc1nc2nc(C)c(Cc3ccccc3)c(C)n2n1`, inactive: -8.99%.
Consider `O=C(CCC1CCCC1)N1CCc2c([nH]c3ccccc23)C1c1ccc(Cl)cc1` (stereo unspecified), for which the “activation” value was inactive: -20.4%.
For `CCc1cccc(C)c1NS(=O)(=O)c1cc(-c2cc(C)no2)ccc1C`, the “activation” value is inactive: -16.8%.
The figure for `Cc1ccc(-n2nnc(-c3nsc(NC(=O)c4ccccc4)n3)c2C)cc1` is inactive: -10.3%; for `Cc1ccc(-n2nc3ccc(NC(=O)c4oc5ccc(C)cc5c4C)cc3n2)cc1` it is inactive: -7.74%; for `CCOc1ccc(OCC(=O)NCCS(=O)(=O)N2CCN(c3ccc(F)cc3)CC2)cc1` it is inactive: 5.26%.
`Cc1cc(C(F)F)n2nc(C(=O)Nc3cc(Cl)ccc3C)nc2n1`: the “activation” value was inactive: -11.2%.
As to `CCOC(=O)C1CCCN(S(=O)(=O)c2ccc(N3CCCCS3(=O)=O)cc2)C1` (stereo unspecified), the “activation” value was inactive: -7.85%.
As to `CC1CCc2noc(NC(=O)c3ccccc3[N+](=O)[O-])c2C1` (stereo unspecified), the “activation” value was inactive: -4.95%.
The figure for `CCCOc1ccccc1C(=O)N1CCCCC1CCN1CCOCC1` (stereo unspecified) is inactive: -8.5%.
The figure for `O=C(Nc1ccccc1F)c1nc(SCc2ccc(F)cc2)ncc1Cl` is inactive: -7.17%; for `CCN(C(=O)Cn1ncc2c(=O)oc3ccc(C)cc3c21)c1cc(OC)ccc1OC` it is inactive: -10.6%.
As for `O=C(Nc1ccc2nc(SCCOc3ccccc3)sc2c1)c1cccs1`, the “activation” value is inactive: -14.5%.
As for `COc1ccccc1CNC(=O)C1CCN(S(=O)(=O)c2c(C)noc2/C=C/c2c(C)cc(C)cc2C)CC1`, the “activation” value was inactive: -16%.
Regarding `O=C(Nc1ccc(C(F)(F)F)cc1)c1cc(S(=O)(=O)NC2CCCCC2)ccc1F`, the “activation” value was inactive: -13.4%.
For the compound `CCCN1C(=O)C(O)(CC(=O)c2ccc(OC)c(OC)c2)c2ccccc21` (stereo unspecified), the “activation” value was inactive: -12.7%.
With `CN1CCN(C(=O)c2ccc3c(c2)N(Cc2cccc(Cl)c2)C(=O)c2ccccc2S3(=O)=O)CC1` the figure was inactive: -12.9%.
In the case of `CCc1ccc(NC(=O)c2ccc(F)c(S(=O)(=O)NC3CCCCCC3)c2)cc1`, the “activation” value is inactive: -5.49%.
In the case of `COc1cccc(CNC(=O)CSc2ncc3c(n2)-c2cc(Cl)ccc2N(C)S3(=O)=O)c1`, the “activation” value is inactive: -20.3%.
The figure for `Cc1c(Cl)cccc1NC(=O)CN1C(=O)COc2ccc(S(=O)(=O)N3CCCCCC3)cc21` is inactive: -5.29%.
With `CCOc1ccccc1NC(=O)c1sc2nc(C)cc(C)c2c1N` the figure was inactive: -20.5%; with `Cc1coc2c(C)c3oc(=O)c(CC(=O)NCc4ccccc4)c(C)c3cc12`, inactive: -5.1%.
`CCOC(=O)c1cnc2c(C)cc(C)cc2c1NCCc1ccc(OC)c(OC)c1`: the “activation” value was inactive: -9.97%.
With `Cc1cccc(C)c1NC(=O)c1nc(S(C)(=O)=O)ncc1N(Cc1ccc(F)cc1)Cc1ccco1` the figure was inactive: -2.13%.
As for `COc1cccc(CNC(=O)CN2C(=O)CSc3c2c(C)nn3-c2ccccc2)c1OC`, the “activation” value is inactive: -12.8%.
The figure for `COc1ccc(CNC(=O)Cn2c(=O)oc3cc(S(=O)(=O)N4CCC(C)CC4)ccc32)cc1` is inactive: -40.4%; for `Cc1ccc(Cl)cc1-n1c(=O)c2sc3ccccc3c2n(CC(=O)NC2CCCCC2)c1=O` it is inactive: -8.74%.
Take `Cc1ccc(C)n1-c1c(C(=O)NCC(C)c2ccccc2)sc2ncccc12` (stereo unspecified): the “activation” value was inactive: -10.3%.
With `O=c1c2sc3ccccc3c2n(Cc2ccccc2Cl)c(=O)n1Cc1ccccc1` the figure was inactive: -6.68%; with `COc1ccc(C(=O)N(Cc2ccc(N(C)C)cc2)Cc2ccco2)cc1Cl`, inactive: -18.2%.
For `Cc1cc(-c2ccc(C)c(S(=O)(=O)Nc3ccccc3C(F)(F)F)c2)on1`, the “activation” value is inactive: -31.2%.
The figure for `Cc1ccc2c(CC(=O)NCc3ccccc3)coc2c1C` is inactive: -24.2%.
Consider `CCOC(=O)c1c(C)[nH]c(CCC(=O)NCCCN2CCN(c3cc(Cl)ccc3C)CC2)c1C`, for which the “activation” value was inactive: -13.3%.
The figure for `Cc1c(CCNC(=O)Cc2ccc(F)cc2)sc2nc(-c3ccc(F)cc3)nn12` is inactive: -10.4%.
The figure for `CCCCN(C)CCNC(=O)C1CCCN(S(=O)(=O)c2ccc3c(c2)oc(=O)n3C)C1` (stereo unspecified) is inactive: -2.69%; for `O=C(Cn1c(=O)c2ccccc2n(CC(=O)Nc2ccc(Cl)cc2)c1=O)NCCc1ccccc1` it is inactive: -25.6%; for `CCc1ccccc1NC(=O)Cn1c(=O)n(CCCS(=O)(=O)C2CCCCC2)c(=O)c2ccccc21` it is inactive: 10.8%.
The figure for `COc1ccc(NC(=O)CCCn2c(=O)c3cccn3c3ccccc32)c(OC)c1` is inactive: -2.64%.
Regarding `COc1ccc(C(=O)Oc2c(Sc3ccc(Cl)cc3)c(C)nn2C(C)(C)C)cc1OC`, the “activation” value was inactive: -12%.
The figure for `O=C(NCCc1csc(-c2ccc(C(F)(F)F)cc2)n1)C(=O)Nc1cc(F)ccc1F` is inactive: -15.4%; for `Cc1ccccc1NS(=O)(=O)c1nnc(NC(=O)c2ccc(Cl)cc2)s1` it is inactive: -19.4%.
With `CCOC(=O)c1[nH]c(C)c(CCC(=O)Nc2ccc(C(C)=O)cc2)c1C` the figure was inactive: -18.4%; with `O=C1C(c2cccc(Br)c2)N(CCc2ccccc2)C(=O)CN1C1CCCCC1` (stereo unspecified), inactive: -8.22%.
The figure for `CCOc1cccc(CNCCNC(=O)c2nonc2N)c1` is inactive: 16.2%; for `Cc1cccc(CNS(=O)(=O)c2csc(C(N)=O)c2)c1` it is inactive: -6.84%; for `CCOc1ccc(C(=O)Nc2cccc(OCc3cc(=O)n4ccccc4n3)c2)cc1` it is inactive: -8.27%.
With `CCN(CC)C(=O)Cn1cc(SCC(=O)Nc2cccc(F)c2)c2ccccc21`, the “activation” value is inactive: -18.2%.
With `COc1ccc(C(CC(=O)O)NC(=O)c2cc3ccccc3oc2=O)cc1OC` (stereo unspecified), the “activation” value is inactive: -10.1%.
In the case of `Cc1ccc(S(=O)(=O)c2cnc(SCC(=O)Nc3cccc(Cl)c3)nc2N)cc1C`, the “activation” value was inactive: -14.1%.
With `Cc1ccc(C2c3c(-c4cc(C)ccc4O)n[nH]c3C(=O)N2Cc2ccco2)cc1` (stereo unspecified) the figure was inactive: -9.59%.
Consider `O=C(Nc1cccc2cccnc12)c1ccccc1[N+](=O)[O-]`, for which the “activation” value is inactive: -3.65%.
`Oc1ccc(Nc2nc3ccccc3n3cnnc23)cc1`: the “activation” value was inactive: 1.75%.
With `Cc1cccc(Cn2c(=O)n(Cc3ccc(C(=O)NC4CCN(Cc5ccccc5)CC4)cc3)c(=O)c3ccccc32)c1`, the “activation” value was inactive: -8.52%.
As to `CCOC(=O)c1cnc2c(C)cc(C)cc2c1Nc1cccc(C(=O)O)c1`, the “activation” value was inactive: -11.7%.
